# Data published in the supplement of paper PMC8728848.
# This is one part of the list.
# B1: PNA (Arachis hypogaea), P02872 (protein)
# chain: MKPFCVFLTFFLLLAASSKKVDSAETVSFNFNSFSEGNPAINFQGDVTVLSNGNIQLTNLNKVNSVGRVLYAMPVRIWSSATGNVASFLTSFSFEMKDIKDYDPADGIIFFIAPEDTQIPAGSIGGGTLGVSDTKGAGHFVGVEFDTYSNSEYNDPPTDHVGIDVNSVDSVKTVPWNSVSGAVVKVTVIYDSSTKTLSVAVTNDNGDITTIAQVVDLKAKLPERVKFGFSASGSLGGRQIHLIRSWSFTSTLITTTRRSIDNNEKKIMNMASA
# What was measured:
# Assay in all cases: glycan array binding signal (z-score within array); higher = stronger binding
# Details in all cases: glycan notation: IUPAC condensed, linker removed
# [1] = target: Fuc(a1-2)Gal(b1-4)GlcNAc(b1-3)Gal(b1-4)GlcNAc(b1-3)Gal(b1-4)GlcNAc
# How it was run: (§1)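 The binding signal is a Z-score computed within each array and averaged over linkers. Arrays of the same protein sequence at different concentrations or buffers were also averaged together. Data originate from 3228 arrays in the Consortium for Functional Glycomics database, kept only where the protein sequence was available.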
# [2] = target: Fuc(a1-2)Gal(b1-4)GlcNAc(b1-3)GalNAc
# How it was run: as §1
# [3] = target: Fuc(a1-2)Gal(b1-4)GlcNAc(b1-3)[Fuc(a1-2)Gal(b1-4)GlcNAc(b1-6)]GalNAc
# How it was run: as §1
# [4] = target: Fuc(a1-2)Gal(b1-4)GlcNAc(b1-3)[Fuc(a1-3)[Gal(b1-4)]GlcNAc(b1-6)]Gal(b1-4)Glc
# How it was run: as §1
# [5] = target: Fuc(a1-2)Gal(b1-4)GlcNAc(b1-6)GalNAc
# How it was run: as §1
# [6] = target: Fuc(a1-2)Gal(b1-4)GlcNAc6S
# How it was run: as §1
# [7] = target: Fuc(a1-2)Gal(b1-4)[Fuc(a1-3)]GlcNAc
# How it was run: as §1
# [8] = target: Fuc(a1-2)Gal(b1-4)[Fuc(a1-3)]GlcNAc(b1-2)Man(a1-3)[Fuc(a1-2)Gal(b1-4)[Fuc(a1-3)]GlcNAc(b1-2)Man(a1-6)]Man(b1-4)GlcNAc(b1-4)GlcNAc
# How it was run: as §1
# [9] = target: Fuc(a1-2)Gal(b1-4)[Fuc(a1-3)]GlcNAc(b1-2)Man(a1-3)[Fuc(a1-2)Gal(b1-4)[Fuc(a1-3)]GlcNAc(b1-2)Man(a1-6)]Man(b1-4)GlcNAc(b1-4)[Fuc(a1-6)]GlcNAc
# How it was run: as §1
# [10] = target: Fuc(a1-2)Gal(b1-4)[Fuc(a1-3)]GlcNAc(b1-2)[Fuc(a1-2)Gal(b1-4)[Fuc(a1-3)]GlcNAc(b1-4)]Man(a1-3)[Fuc(a1-2)Gal(b1-4)[Fuc(a1-3)]GlcNAc(b1-2)Man(a1-6)]Man(b1-4)GlcNAc(b1-4)GlcNAc
# How it was run: as §1
# [11] = target: Fuc(a1-2)Gal(b1-4)[Fuc(a1-3)]GlcNAc(b1-3)Gal(b1-4)Glc
# How it was run: as §1
# [12] = target: Fuc(a1-2)Gal(b1-4)[Fuc(a1-3)]GlcNAc(b1-3)Gal(b1-4)[Fuc(a1-3)]GlcNAc
# How it was run: as §1
# [13] = target: Fuc(a1-2)Gal(b1-4)[Fuc(a1-3)]GlcNAc(b1-3)Gal(b1-4)[Fuc(a1-3)]GlcNAc(b1-3)Gal(b1-4)[Fuc(a1-3)]GlcNAc
# How it was run: as §1
# [14] = target: Fuc(a1-2)Gal(b1-4)[Fuc(a1-3)]GlcNAc(b1-3)GalNAc
# How it was run: as §1
# [15] = target: Fuc(a1-2)Gal(b1-4)[Fuc(a1-3)]GlcNAc(b1-3)[Fuc(a1-2)]Gal(b1-4)Glc
# How it was run: as §1
# [16] = target: Fuc(a1-2)Gal(b1-4)[Fuc(a1-3)]GlcNAc(b1-3)[Neu5Ac(a2-6)Gal(b1-4)GlcNAc(b1-6)]Gal(b1-4)Glc
# How it was run: as §1
# [17] = target: Fuc(a1-2)Gal3S(b1-4)GlcNAc
# How it was run: as §1
# [18] = target: Fuc(a1-2)Gal6S(b1-3)GlcNAc
# How it was run: as §1
# [19] = target: Fuc(a1-2)Gal6S(b1-3)GlcNAc6S
# How it was run: as §1
# Fuc(a1-2)Gal6S(b1-4)Glc = target: Fuc(a1-2)Gal6S(b1-4)Glc
# How it was run: as §1
# [20] = target: Fuc(a1-2)Gal6S(b1-4)Glc6S
# How it was run: as §1
# [21] = target: Fuc(a1-2)Gal6S(b1-4)GlcNAc
# How it was run: as §1
binder,measurement,setting,value
B1,glycan array binding signal (z-score),[1],-0.113
same,glycan array binding signal (z-score),[2],-0.192
same,glycan array binding signal (z-score),[3],-0.24
same,glycan array binding signal (z-score),[4],-0.142
same,glycan array binding signal (z-score),[5],-0.167
same,glycan array binding signal (z-score),[6],-0.144
same,glycan array binding signal (z-score),[7],-0.164
same,glycan array binding signal (z-score),[8],-0.007
same,glycan array binding signal (z-score),[9],-0.135
same,glycan array binding signal (z-score),[10],-0.107
same,glycan array binding signal (z-score),[11],-0.195
same,glycan array binding signal (z-score),[12],-0.198
same,glycan array binding signal (z-score),[13],-0.16
same,glycan array binding signal (z-score),[14],-0.037
same,glycan array binding signal (z-score),[15],-0.195
same,glycan array binding signal (z-score),[16],-0.326
same,glycan array binding signal (z-score),[17],-0.183
same,glycan array binding signal (z-score),[18],-0.374
same,glycan array binding signal (z-score),[19],-0.266
same,glycan array binding signal (z-score),Fuc(a1-2)Gal6S(b1-4)Glc,-0.186
same,glycan array binding signal (z-score),[20],-0.145
same,glycan array binding signal (z-score),[21],-0.158
